In PMC4336329 (PLoS ONE, 2015):
Screen size: about 310,000 compounds; about 2,200 (0.71%) showed an effect of 50% or more. The effect is printed as a negative number. The list shows a part of the results.

Target: human ether-à-go-go-related gene (hERG) potassium channel (human, UniProt Q12809)
Test: primary screen, population patch clamp on CHO cells stably expressing hERG

Chain of human ether-à-go-go-related gene (hERG) potassium channel (Q12809 whole entry, looked up): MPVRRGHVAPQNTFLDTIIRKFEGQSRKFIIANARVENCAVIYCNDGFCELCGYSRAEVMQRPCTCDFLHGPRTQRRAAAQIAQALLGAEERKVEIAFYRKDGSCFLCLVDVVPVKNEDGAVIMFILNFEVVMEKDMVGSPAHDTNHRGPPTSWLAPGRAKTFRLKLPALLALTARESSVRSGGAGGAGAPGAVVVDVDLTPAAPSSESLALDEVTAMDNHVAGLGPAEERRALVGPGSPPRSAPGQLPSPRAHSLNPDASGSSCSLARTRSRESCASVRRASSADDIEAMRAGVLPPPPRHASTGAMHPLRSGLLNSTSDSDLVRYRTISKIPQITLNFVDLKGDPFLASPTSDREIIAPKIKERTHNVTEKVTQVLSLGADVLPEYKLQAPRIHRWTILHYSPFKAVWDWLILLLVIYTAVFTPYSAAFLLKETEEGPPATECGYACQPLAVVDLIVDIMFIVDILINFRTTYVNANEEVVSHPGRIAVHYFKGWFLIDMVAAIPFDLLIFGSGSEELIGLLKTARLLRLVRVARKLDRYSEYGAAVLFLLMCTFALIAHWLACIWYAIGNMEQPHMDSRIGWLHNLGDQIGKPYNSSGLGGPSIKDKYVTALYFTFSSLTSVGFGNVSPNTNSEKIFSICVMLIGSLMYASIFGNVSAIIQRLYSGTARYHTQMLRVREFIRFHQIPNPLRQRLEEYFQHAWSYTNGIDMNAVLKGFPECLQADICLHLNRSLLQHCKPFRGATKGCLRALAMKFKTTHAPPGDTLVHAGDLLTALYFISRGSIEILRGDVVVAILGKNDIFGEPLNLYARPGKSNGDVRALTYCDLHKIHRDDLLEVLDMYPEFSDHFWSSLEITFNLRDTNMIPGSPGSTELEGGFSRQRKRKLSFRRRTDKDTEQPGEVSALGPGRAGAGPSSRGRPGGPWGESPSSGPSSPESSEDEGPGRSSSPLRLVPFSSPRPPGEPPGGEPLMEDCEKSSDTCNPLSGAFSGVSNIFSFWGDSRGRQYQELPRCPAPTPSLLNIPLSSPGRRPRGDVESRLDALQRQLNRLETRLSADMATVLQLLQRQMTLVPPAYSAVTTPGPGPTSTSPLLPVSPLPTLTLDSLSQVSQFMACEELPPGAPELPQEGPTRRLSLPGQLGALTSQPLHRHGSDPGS

Row | Structure (SMILES) | hERG current change (%, negative = inhibition) at 1uM
1 | CCN(CC)CCCN(C(=O)c1ccc(Br)cc1)c1nc(-c2ccc(OC)cc2)cs1.Cl | -43.6%
2 | Nc1cc(N2CCCCC2)c([N+](=O)[O-])cc1Cl | 5.06%
3 | CC(C)NC(=S)NC(=O)/C=C/c1ccc(F)cc1 | 10.3%
4 | O=C(c1ccc(S(=O)(=O)NCC2CCCO2)cc1)N1CCc2ccccc21 (stereo not shown) | 9.08%
5 | c1ccc(-n2ncc3c(NCc4ccccn4)ncnc32)cc1 | 5.75%
6 | COCCN(Cc1cc2ccc(C)cc2n2nnnc12)Cc1nnnn1C(C)(C)C | -3.14%
7 | Cc1cc(C)nc(-n2nc(C)c3c(=O)[nH]c(C(F)(F)F)nc32)n1 | 14.3%
8 | CCCCNC(=O)c1ccc2c(c1)N(C)C(=O)c1ccccc1S2 | 19.9%
9 | C=C(C)c1cccc(C(C)(C)NC(=O)N2CCN(CC(N)=O)CC2)c1 | 6.82%
10 | CCCN1C(=O)S/C(=C\c2ccc(N3CCOCC3)o2)C1=O | 2.6%
11 | CCC1(c2ccc(F)cc2)NC(=O)NC1=O (stereo not shown) | 19.2%
12 | COC(=O)C[C@H]1c2cc(C(F)(F)F)ccc2S(=O)(=O)N1C(C)(C)C | 6.16%
13 | COc1cc(C)c(CN2CCC(n3nccc3NC(=O)C3CCOC3)CC2)cc1C (stereo not shown) | 6.94%
14 | COc1ccc(OCCOC(=O)CNS(=O)(=O)c2ccc(SC)c([N+](=O)[O-])c2)cc1 | -15.7%
15 | COc1cc2c(cc1OC)CN(C(=S)Nc1ccc(Cl)cc1)CC2 | 15%
16 | CCC1(C)Cc2c(C#N)c(N)sc(=S)c2CO1 (stereo not shown) | 3.61%
17 | CCCN(C(=O)COC(=O)COc1c(C)cccc1C)c1c(N)n(Cc2ccccc2)c(=O)[nH]c1=O | 5.65%
18 | O=C(Cc1ccccc1)NCCc1cccc(Cl)c1 | 3.39%
19 | CC1=Nc2cc(C(=O)NCC3CCCO3)ccc2Sc2ccc(C)cc21 (stereo not shown) | 13.9%
20 | Cc1nn(CC(=O)NCCc2ccc(Cl)cc2)c(C)c1[N+](=O)[O-] | -0.925%
21 | CC(=O)Nc1ccc(S(=O)(=O)N2CCCCC2C(=O)O)cc1 (stereo not shown) | 15.1%
22 | COc1cc2[nH]c(=O)n(CCC(=O)N3CCN(Cc4ccc5c(c4)OCO5)CC3)c(=O)c2cc1OC | 12.8%

Row | Structure (SMILES) | hERG current change (%, negative = inhibition) at 1uM
23 | COc1cccc(/C=N/n2c(C)nc3ccccc3c2=O)c1O | 9.85%
24 | COC(=O)CCC(=O)OC1(C)C(=O)C2=CN(C(CO)CO)C(c3ccc(OC)cc3)=CC2=C(Br)C1=O (stereo not shown) | 4.62%
25 | O=C(NCc1ccccc1Cl)C1CCCN1C(=O)NC1CCCCC1 (stereo not shown) | 13.1%
26 | O=C(Nc1ccc(Oc2ccccc2)nc1)C1CCCCN1Cc1cccc(OCCO)c1 (stereo not shown) | 13.2%
27 | CCC(C)NC(=O)C(Cc1ccccc1)NS(=O)(=O)c1cccc2nsnc12 (stereo not shown) | 9.24%
28 | Cn1nc(-c2ccc(N3CCN(CCO)CC3)c([N+](=O)[O-])c2)c2ccccc2c1=O | 17.3%
29 | CN(/C=C/C(=C/C=[N+](C)c1ccccc1)OCCCS(=O)(=O)[O-])c1ccccc1 | 6.44%
30 | COc1ccc(C(CC(=O)O)n2cnnn2)cc1.Cl (stereo not shown) | 5.96%
31 | O=C(CCN1C(=O)S/C(=C\c2ccccc2)C1=O)Nc1ccc(O)cc1C(=O)O | 19.2%
32 | CC1CCCN(C(=O)COC(=O)c2ccc3[nH]c4c(c3c2)CCCC4)C1 (stereo not shown) | 13.8%
33 | C=CCNC(=O)COc1cc(C)cc(C)c1C | 7.31%
34 | C/C(CC(=O)Nc1c(C)cc(C)cc1C)=N\NC(=O)c1cnccn1 | 15%
35 | Cc1ccc(N2CCN(S(=O)(=O)c3ccc4oc(=O)ccc4c3)CC2)cc1Cl | 8.8%
36 | O=C(NCC1CCCO1)c1nn2c(c1Cl)NC(c1ccc(F)cc1)CC2C(F)(F)F (stereo not shown) | -2.01%
37 | O=C(c1cc(S(=O)(=O)N2CCN(c3ccccc3)CC2)ccc1Cl)N1CCCC(C(F)(F)F)C1 (stereo not shown) | -3.84%
38 | O=C(NCc1ccc2c(c1)OCO2)C1CC(=O)N(C2CCCC2)C1 (stereo not shown) | 10.1%
39 | CC(C)(C)N(Cc1ccccc1)C(=O)COC(=O)c1ccc(Br)o1 | 10.9%
40 | CCN(C(=O)CN1CCN(c2ccccc2OC)CC1)c1c(N)n(Cc2ccccc2)c(=O)[nH]c1=O | 11.9%
41 | COc1ccc(NC(=O)CSc2nnnn2C2CCCC2)cc1 | 23.6%
42 | CC(=O)Nc1nnc(S(=O)(=O)N2CCN(c3ccc(Cl)cc3[N+](=O)[O-])CC2)s1 | 9.84%
43 | C/C(=N\NC(=O)C(N)=O)c1cccc([N+](=O)[O-])c1 | 11.8%
44 | CCOC(=O)c1c(C)[nH]c(C(=O)CN2C(=O)C(=O)N(CC(C)C)C2=O)c1C | 12.8%

Row | Structure (SMILES) | hERG current change (%, negative = inhibition) at 1uM
45 | CCN(C(=O)c1cn(C)c(=O)c2cc(OC)c(OC)cc12)c1ccccc1C | -4.75%
46 | O=C(Nc1ccc(S(=O)(=O)NCc2ccco2)cc1)c1ccncc1 | 8.16%
47 | CC(=O)N1CCc2cc(S(=O)(=O)Nc3ccc(C)cc3C)ccc21 | 9.62%
48 | COc1ccc2cc(CN(Cc3cccnc3)Cc3nnnn3Cc3ccccc3)c(=O)[nH]c2c1 | -49.3%
49 | COc1cc(C(=O)OCCC(C)C)cc(OC)c1O | 1.43%
50 | CC(C)Cn1c(=O)n(C)c(=O)c2[nH]cnc21 | 16.4%
51 | COCCCNC(=O)C1c2ccccc2Oc2ccccc21 | 8.03%
52 | Nc1[nH][nH]c(=O)c1N=Nc1cccc(Cl)c1 | 14%
53 | Cc1ccc(N2CCN(C(=O)c3cc(C(=O)c4ccccc4C)c[nH]3)CC2)c(C)c1 | 5.8%
54 | CN(CCC#N)C(=O)CSc1nnc(-c2c[nH]c3ccccc23)o1 | 3.48%
55 | CC1(C)CC(=O)C2=C(C1)OC(=O)CC2c1cccs1 (stereo not shown) | 5.96%
56 | COc1ccccc1NC(=O)Cn1c(=O)c(N(C)C)c(N)n(C)c1=O | 13.2%
57 | Cc1cc(C)cc(OCC(=O)OC/C(O)=C(\C#N)c2nc3ccccc3[nH]2)c1 | 18.7%
58 | CC(C)c1ccc(/C=C/C(=O)CCC(=O)O)cc1 | 7.28%
59 | CC1CC(NC(=O)CC#N)CC(C)(C)C1 (stereo not shown) | 12.6%
60 | C#CCOc1ccccc1/C=N/NC(=O)c1ccccc1OCc1ccccc1 | 12.6%
61 | CCc1cc(C(=O)c2ccc(OC)cc2)c(N)s1 | 11.4%
62 | COCCNC(=O)c1cn(Cc2c(F)cccc2Cl)nn1 | 16.2%
63 | Cc1cccc(-c2ncc(CN3CCN(C4CCCC4)C(CCO)C3)cn2)c1 (stereo not shown) | -15.1%
64 | CC(NC(=O)c1cc(COc2cccc(C(F)(F)F)c2)on1)c1nccs1 (stereo not shown) | 4.87%
65 | CC(NC(=O)c1ccccc1)C(=O)OCC(=O)c1c(N)n(C)c(=O)n(C)c1=O (stereo not shown) | 2.27%
66 | O=c1cc(N2CCCC2)[nH]c(=O)n1-c1ccc(Cl)cc1 | 6.13%

Row | Structure (SMILES) | hERG current change (%, negative = inhibition) at 1uM
67 | Cc1noc(C)c1COC(=O)C1CCN(C(=O)c2ccc(Cl)cc2)CC1 | -11.2%
68 | COCCNC(=O)c1c[nH]n2c(=O)cc(C3CCN(C(=O)OC(C)(C)C)CC3)nc12 | 9.37%
69 | CC(C)c1c(O)cc(-c2ccncc2)n(-c2ccc(Cl)cc2)c1=O | -6.96%
70 | CC(CC(=O)Nc1ccc(F)c([N+](=O)[O-])c1)c1ccccc1 (stereo not shown) | 8.21%
71 | CN(C)CC(=O)N1c2ccccc2Sc2ccc(Cl)cc21.Cl | 4.38%
72 | Cc1noc(C)c1C(=O)OCC(=O)c1cc(C)n(Cc2ccccc2Cl)c1C | -5.89%
73 | Cc1ccc(OCCC(=O)OCC(=O)Nc2c(C)nn(-c3ccccc3)c2C)cc1 | -1.03%
74 | Br.c1ccc(-c2nc(CSc3nnnn3-c3ccccc3)cs2)cc1 | 9.81%
75 | COc1ccc(CCN2CC(C(=O)N(C)CCn3nc(C)cc3C)CCC2=O)cc1 (stereo not shown) | 14%
76 | O=C(Nc1nnc(S(=O)(=O)N2CCCCCC2)s1)c1ccccc1 | 13.3%
77 | Cc1ccc(C(=O)CSc2nnc(C3CC3)n2C2CC2)s1 | 5.56%
78 | COc1cccc(-n2c(Cc3cc(=O)[nH]c(=O)[nH]3)nnc2SCc2cccnc2)c1 | 7.31%
79 | COc1ccc(C(=O)NCc2cn3c(C)csc3n2)cc1OC | -1.69%
80 | O=C(NNC(=O)c1cc(S(=O)(=O)N2CCCCC2)ccc1Cl)c1ccccc1O | -2%
81 | Cc1cc(C)cc(N2CCCC2=O)c1 | 15.7%
82 | CN1CCN(S(=O)(=O)c2ccc(-c3ccccc3)cc2)CC1 | 10.1%
83 | CC(C)NS(=O)(=O)c1ccc(OCC(=O)Nc2ccc3c(c2)OCO3)cc1 | -1.32%
84 | Cc1ccc(NC(=O)CSc2nc3ccccc3c(=O)n2CCCC(=O)N2CCCC2)cc1 | -34.7%
85 | Cc1ccc(C(O)c2ccncc2)cc1 (stereo not shown) | 13%
86 | OCC[C@H]1C[C@@H](O)[C@H](O)[C@@]2(OCCc3ccccc32)O1 | 7.45%
87 | Cc1ccc(S(=O)(=O)N2CCC(C(=O)N[C@@H](Cc3ccccc3)C(=O)O)CC2)cc1 | 2.7%
88 | O=C(Nc1ccc(N2CCOCC2)c(Cl)c1)c1cccnc1 | 6.61%
